Results from PMC6203356, “HJURP antagonizes CENP-A mislocalization driven by the H3.3 chaperones HIRA and DAXX” (PLoS ONE, 2018).

Biological target: T1, CENP-A (endogenous, soluble pre-assembly fraction) (human (endogenous in SW480), UniProt P49450)
T1 construct: Histone H3 variant CENP-A, endogenous in human colon cancer cells (SW480); also called CENH3; CpA; source: endogenous, SW480 soluble fraction (PBS with 0.5% NP-40 supernatant)
Experiment: co-IP; CENP-A IP (ACA serum) or mock IP from the soluble fraction (PBS, 0.5% NP-40) of SW480 cells treated 72 hours with control or HJURP siRNA; Western blot for the chaperones
Conditions: partners not purified

T1 sequence (P49450 whole entry): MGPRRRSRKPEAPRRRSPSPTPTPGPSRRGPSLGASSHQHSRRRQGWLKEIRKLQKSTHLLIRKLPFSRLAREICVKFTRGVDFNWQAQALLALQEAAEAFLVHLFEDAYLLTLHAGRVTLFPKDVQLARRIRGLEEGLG

fold increase in the amount bound to CENP-A after HJURP knockdown against control siRNA: 1.5 fold
B1: DAXX (endogenous) (natural protein, human (endogenous in SW480))
chain: MATANSIIVLDDDDEDEAAAQPGPSHPLPNAASPGAEAPSSSEPHGARGSSSSGGKKCYKLENEKLFEEFLELCKMQTADHPEVVPFLYNRQQRAHSLFLASAEFCNILSRVLSRARSRPAKLYVYINELCTVLKAHSAKKKLNLAPAATTSNEPSGNNPPTHLSLDPTNAENTASQ[skipping about 200 residues]ERKKRRARLQGTSSHSADTPEASLDSGEGPSGMASQGCPSASRAETDDEDDEESDEEEEEEEEEEEEEATDSEEEEDLEQMQEGQEDDEEEDEEEEAAAGKDGDKSPMSSLQISNEKNLEPGKQISRSSGEQQNKGRIVSPSLLSEEPLAPSSIDAESNGEQPEELTLEEESPVSQLFELEIEALPLDTPSSVETDISSSRKQSEEPFTTVLENGAGMVSSTSFNGGVSPHNWGDSGPPCKKSRKEKKQTGSGPLGNSYVERQRSVHEKNGKKICTLPSPPSPLASLAPVADSSTRVDSPSHGLVTSSLCIPSPARLSQTPHSQPPRPGTCKTSVATQCDPEEIIVLSDSD
notes: DAXX, H3.3 chaperone, endogenous in SW480 cells; also called H3.3 chaperone DAXX; source: endogenous, SW480 soluble fraction
